Source: PubChem BioAssay AID1346428 (National Center for Advancing Translational Sciences (NCATS), 2018)
The whole screen tested about 48,000 compounds, of which about 1,200 (2.5%) were called active. About 2% were inconclusive and are not listed.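 Rule for the calls: active = activation of at least 60% and not above a set upper limit (about 1 call in 100 departs from these limits); inconclusive = activation of 40% to 60%, or above that upper limit; inactive = activation under 40%.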 The list shows a part of the results.

molecular target: Probable G-protein coupled receptor 32 (Homo sapiens) (UniProt O75388); assay: qHTS for Agonists of Human Resolvin D1 Receptor DRV1; settings: CHO-K1 GPR32 beta-arrestin PathHunter luminescence, 90 min; at 76.9 µM; active compounds read high; zero percent set by DMSO-only wells; note: 0% is about no effect
In short: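 PathHunter beta-arrestin recruitment in CHO-K1 cells stably expressing ProLink-tagged GPR32. Cells were exposed to compound for 90 min at 37 C, then chemiluminescence was read after 1 h detection at ambient temperature; DMSO served as basal control.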

Chain of UniProt O75388 (O75388 whole entry, looked up): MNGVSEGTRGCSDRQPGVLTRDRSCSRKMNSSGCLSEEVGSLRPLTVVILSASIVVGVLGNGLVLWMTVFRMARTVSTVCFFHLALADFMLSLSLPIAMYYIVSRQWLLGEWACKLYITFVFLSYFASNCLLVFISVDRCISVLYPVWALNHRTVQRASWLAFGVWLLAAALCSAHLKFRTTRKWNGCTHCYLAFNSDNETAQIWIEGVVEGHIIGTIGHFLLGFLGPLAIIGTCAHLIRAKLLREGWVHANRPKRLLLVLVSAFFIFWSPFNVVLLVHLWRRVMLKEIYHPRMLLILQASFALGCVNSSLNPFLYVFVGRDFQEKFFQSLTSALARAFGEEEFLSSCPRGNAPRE

Row | Structure (SMILES) | activation
1 | Cc1ccc(Nc2sc(C(=O)c3ccccc3)c(N)c2C(=O)NC(C)C)cc1 | inactive: -7.09%
2 | Cc1nc2ccn(Cc3cccs3)c(=O)c2cc1C(=O)NCc1ccccc1 | inactive: -18.6%
3 | CCOc1ccc(NC(=O)C2CCN(S(=O)(=O)c3cc(-c4noc(C)n4)ccc3C)CC2)cc1 | inactive: -7.2%
4 | CCOC(=O)c1cc(-c2ccccc2)n(CC(=O)Nc2ccc(OC)cc2OC)c1C | inactive: -15.5%
5 | CC(C)CC(=O)NCc1nc2cccnc2n1Cc1ccccc1 | inactive: 0.0356%
6 | CSc1cccc(-c2nnc(NC(=O)c3ccc4c(c3)OCCO4)o2)c1 | inactive: -6.85%
7 | COc1ccc(-c2ccc(NS(=O)(=O)c3cccc(Cl)c3)cc2)nn1 | inactive: 26.3%
8 | Cc1ccccc1CNC(=O)c1ccc(Cn2c(SCc3cccc(F)c3)nc3cccnc32)cc1 | inactive: -19.3%
9 | CCOC(=O)c1nc(Nc2ccc(C(=O)OCC(C)C)cc2)c2ccccc2n1 | inactive: 32.4%
10 | O=C(CCc1cn(Cc2ccccc2F)c2ccccc12)NCc1ccc(Cl)cc1 | inactive: -21.5%
11 | COc1ccc(N2CCN(C(=O)c3cc(S(=O)(=O)N4CCCCCC4)cn3C)CC2)cc1 | inactive: -17.6%
12 | Cc1ccc2oc(C(=O)N(Cc3cccc(F)c3)C3CCS(=O)(=O)C3)c(C)c2c1 (stereo not drawn) | inactive: -37.8%
13 | COc1cccc(Cn2c(=O)n(-c3ccc(C)c(F)c3)c(=O)c3sc4ccccc4c32)c1 | inactive: -10.9%
14 | COc1cccc(NC(=O)N2CCC(n3c(C)nc4cccnc43)CC2)c1 | inactive: 16.2%
15 | COc1ccc(-c2cc(=S)ss2)cc1 | inactive: -33.8%
16 | O=C(NCc1ccccc1Cl)C1CCC(CNS(=O)(=O)c2ccc(Cl)cc2)CC1 (stereo not drawn) | inactive: -16.6%
17 | COc1cccc(OC)c1C(=O)Nc1nnc(C)s1 | inactive: -4.23%
18 | COc1ccc(CNC(=O)C2CCN(Cc3nc(-c4ccc(OC)c(OC)c4)oc3C)CC2)cc1 | inactive: 27.7%
19 | Cc1ccc(-c2cc(C(F)(F)F)n3nc(-c4ccc(Cl)cc4)cc3n2)cc1 | inactive: 3.39%
20 | Cc1cc(C(C)(C)C)c(O)c(C(C)(C)C)c1 | inactive: -7.14%
21 | O=C(COC(=O)C(Cc1c[nH]c2ccccc12)NC(=O)c1ccc(Br)cc1)c1ccc(Cl)cc1 (stereo not drawn) | inactive: -24.8%

Row | Structure (SMILES) | activation
22 | Cc1ccc(N(CC(C)C)S(=O)(=O)c2nnc(NC(=O)c3ccco3)s2)cc1 | inactive: 34.7%
23 | CCc1cccc(CC)c1NC(=O)C1CCC(CNS(=O)(=O)c2cccc3nsnc23)CC1 (stereo not drawn) | inactive: -30.5%
24 | COc1ccc2cc3cc(C(=O)Nc4cc(C)c(Cl)cc4OC)oc3nc2c1 | inactive: 0.0995%
25 | Cc1sc2c(c1C)c(=O)n(-c1ccc(Cl)cc1)c(=O)n2Cc1cc(=O)n2cc(Br)ccc2n1 | inactive: -5.21%
26 | COc1cc(Cl)c(NC(=O)c2cc(S(=O)(=O)N3CCCCC3)c[nH]2)c(OC)c1 | inactive: -30.1%
27 | CC(=O)c1cccc(NS(=O)(=O)c2cc(-c3onc(C)c3C)ccc2C)c1 | inactive: -0.961%
28 | COc1ccc(NC(=O)CSc2oc(-c3ccc(F)cc3)nc2S(=O)(=O)c2ccc(C)cc2)c(OC)c1 | inactive: -1.17%
29 | CCOc1ccccc1NC(=O)CSc1nc2c(sc3ccccc32)c(=O)n1CCCC(=O)NC1CCCC1 | inactive: -6.61%
30 | CCOC(=O)c1c(S(=O)(=O)N2CCCC(C(=O)NCc3ccccc3Cl)C2)c(C)n(C)c1C (stereo not drawn) | inactive: -5.9%
31 | O=C(Nc1ccccc1)N(Cc1c[nH]c2ccccc12)C1CCCCCC1 | inactive: -14.3%
32 | COc1cccc(CNC(=O)c2ccc(CNS(=O)(=O)c3ccc(C)cc3)cc2)c1 | inactive: -10.4%
33 | CCN(c1ccccc1)S(=O)(=O)c1nnc(NC(=O)c2ccccc2)s1 | inactive: 2.13%
34 | Cc1cccc(N2CCN(C(=O)c3cnn(-c4ccccc4Cl)c3C3CCN(C(=O)OC(C)(C)C)CC3)CC2C)c1 (stereo not drawn) | inactive: -12.5%
35 | Cc1cccc(OCc2nc(CC(=O)Nc3ccc(C)cc3C)cs2)c1 | inactive: -10.8%
36 | COc1ccc(CNCCCSc2nnnn2-c2ccccc2)cc1 | inactive: -6.19%
37 | CC1CCc2c(sc3nnn(CCCCOc4ccc(Cl)cc4)c(=O)c23)C1 (stereo not drawn) | inactive: -0.197%
38 | COc1ccc(S(=O)(=O)NCCc2sc(-c3cccnc3)nc2C)c(F)c1 | inactive: 25.6%
39 | CCc1ccc(C2c3c(oc4ccc(F)cc4c3=O)C(=O)N2CCc2ccc(OC)cc2)cc1 (stereo not drawn) | inactive: 2.49%
40 | CCN(CC)CCNC(=O)C(=O)NCC(c1cccnc1)N1CCN(c2ccc(F)cc2)CC1 (stereo not drawn) | inactive: -1.67%
41 | O=C(Nc1ccccc1C(F)(F)F)c1cc(-c2ccc3c(c2)OCCO3)on1 | inactive: 4.67%
42 | CCOC(=O)c1c(NC(=O)c2cc(OCC)c(OCC)c(OCC)c2)sc2c1CCCCC2 | inactive: -24.1%

Row | Structure (SMILES) | activation
43 | Cc1ccc(CNC(=O)Cn2c(=O)ccc3cc(S(=O)(=O)N4CCC(C)CC4)ccc32)cc1 | inactive: -13.2%
44 | COc1ccc(-c2cc(C(=O)NC(C)c3ccccc3)c3cc(C(C)C)ccc3n2)cc1 (stereo not drawn) | inactive: -5.7%
45 | Cc1cc(=O)c2cc(C(=O)Nc3ccc(C)c(C)c3)ccc2[nH]1 | inactive: 16.3%
46 | Cc1nn(-c2ccccc2)c2c1cc1c(=O)[nH]c(=O)nc-1n2-c1cccc(Cl)c1 | inactive: -4.67%
47 | COc1ccccc1/C=C/c1nc(C#N)c(N2CCN(C)CC2)o1 | inactive: -8.23%
48 | Cc1ccc(CNC(=O)C2CCN(S(=O)(=O)c3cccc4nonc34)CC2)cc1 | inactive: -12.6%
49 | COc1ccccc1NC(=O)CSc1nnc(NC(=O)NC2CCCCC2)s1 | inactive: -0.644%
50 | Cc1ccc2oc(C(=O)Nc3ccc(S(=O)(=O)N(C)c4ccccc4)cc3)cc(=O)c2c1 | inactive: 2.03%
51 | CCc1ccc(NCc2cc3cc4c(cc3n(CC(=O)Nc3ccccc3OC)c2=O)OCCO4)cc1 | inactive: -25.4%
52 | COc1ccc(C(=O)N2CCC(c3nc4ccccc4s3)CC2)cc1Cl | active: 75.5%
53 | Cc1cc(NC(=O)Nc2nnc(N(C)C3CCCCC3)s2)ccc1Br | inactive: -0.749%
54 | CC(CC1c2ccccc2CCc2ccccc21)CN(C)C (stereo not drawn) | inactive: -13.3%
55 | Cc1cccc(NC(=O)Cn2ncc3c4ccccc4n(Cc4ccccc4)c3c2=O)c1C | inactive: -10.4%
56 | Cc1ccc(S(=O)(=O)CCC(=O)Nc2ccc(OC(F)(F)F)cc2)cc1 | inactive: 6.91%
57 | CN1C(=O)c2ccccc2C1=O | inactive: 14%
58 | O=C(c1ccc2c(c1)N(Cc1ccccc1F)C(=O)c1ccccc1S2(=O)=O)N1CCc2ccccc21 | inactive: -46.9%
59 | CCC(Sc1nc2ccncc2[nH]1)C(=O)Nc1cc(Cl)ccc1C (stereo not drawn) | inactive: 18%
60 | COc1cc(Cl)c(C)cc1NC(=O)CSc1nc2c(c(=O)[nH]1)CCC2 | inactive: 28.5%
61 | CCOC(=O)O[C@]1(C(=O)OCCl)CC[C@H]2[C@@H]3CCC4=CC(=O)C=C[C@]4(C)[C@H]3[C@@H](O)C[C@@]21C | inactive: -3.32%
62 | CN(C)[C@@H]1C(=O)C(C(N)=O)=C(O)[C@@]2(O)C(=O)C3=C(O)c4c(O)cccc4C[C@H]3C[C@@H]12 | inactive: 16%
63 | CCc1ccccc1NC(=O)Cn1c(=O)n(CCCCCC(=O)NCc2ccc(C)cc2)c(=O)c2sccc21 | inactive: 7.02%

Row | Structure (SMILES) | activation
64 | CCOC(=O)c1cccc(NC(=O)CC2C(=O)N(c3ccc(Cl)cc3)C(=O)N2C2CCCC2)c1 (stereo not drawn) | inactive: -16.7%
65 | CCc1ccc(S(=O)(=O)c2nnn3c2nc(N2CCOCC2)c2sccc23)cc1 | inactive: 1.65%
66 | Cc1ccc(N2CC(c3nc(-c4ccc(Cl)cc4)no3)CC2=O)cc1F (stereo not drawn) | inactive: 6.14%
67 | Cc1cc(N2CCC(C(=O)Nc3ccc(F)cc3C)CC2)n2nc(C)c(-c3ccc(Cl)cc3)c2n1 | inactive: 16.8%
68 | Fc1ccc(CN(C2=NCCN2)c2c(Cl)cccc2Cl)cc1 | inactive: -3.42%
69 | Cc1cc(Br)ccc1NC(=O)C1CCCN(S(=O)(=O)c2cccc3nonc23)C1 (stereo not drawn) | inactive: 28.4%
70 | Cc1cc(-c2ccccc2)n2nc(-c3ccc(Cl)cc3)cc2n1 | inactive: -7.48%
71 | CCc1ccccc1NC(=O)Nc1cc(C(=O)NCc2cccc(F)c2)ccc1N1CCCC1 | inactive: -16.8%
72 | CCOC(=O)c1c(NC(=O)COc2ccc(Br)cc2)sc2c1CCCC2 | inactive: 12.4%
73 | COCCCn1c(=N)c(C(=O)NCc2ccco2)cc2c(=O)n3cccc(C)c3nc21 | inactive: 20.4%
74 | Cc1oc(-c2cccc(Cl)c2)nc1CN1CCCC(C(=O)NCCc2ccc(Cl)cc2)C1 (stereo not drawn) | inactive: 5.13%
75 | O=C(Cn1ncn2nc(-c3cccs3)cc2c1=O)NCc1ccc(Cl)cc1 | inactive: 3.1%
76 | CCc1ccc(S(=O)(=O)c2nnn3c2nc(Nc2ccc(C)c(Cl)c2)c2sccc23)cc1 | inactive: -4.63%
77 | CC(C)CNC(=O)C(=O)Nc1c2c(nn1-c1ccccc1)CS(=O)(=O)C2 | inactive: -8.65%
78 | CCn1c(SCc2cccc(Br)c2)nnc1-c1nonc1NC(C)=O | inactive: -6.94%
79 | CSc1cccc(NC(=O)Cn2c(=O)n(Cc3ccccc3)c(=O)c3sc4ccccc4c32)c1 | inactive: 26.9%
80 | CCOC(=O)CN1C(C(=O)c2ccccc2)=C(OC(=O)C(C)(C)C)c2ccccc2S1(=O)=O | inactive: 0.978%
81 | CC(=O)Nc1cc(C(=O)NCc2ccc(C)cc2)ccc1S(=O)(=O)c1ccc(Cl)cc1 | inactive: -7.21%
82 | Cc1cc(C)n(-c2nc3cc(Cl)ccc3nc2Nc2ccc(C)c(F)c2)n1 | inactive: 15.9%
83 | Cc1ccc(-n2ncc(C(=O)NCCN3CCCC3)c2C2CCN(C(=O)OC(C)(C)C)CC2)cc1 | inactive: -21.7%
